Measured values from US20240252628A1 (ACCELERON PHARMA, published 2024).
Read-outs that look alike come from different tables or passages of the source.

T1: activin A (UniProt P08476 311-426)
T1 sequence (looked up): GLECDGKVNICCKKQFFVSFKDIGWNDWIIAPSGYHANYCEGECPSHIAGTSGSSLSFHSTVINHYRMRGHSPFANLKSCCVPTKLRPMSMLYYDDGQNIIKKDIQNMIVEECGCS

T2: BMP9 (UniProt Q9UK05 320-429)
T2 sequence (looked up): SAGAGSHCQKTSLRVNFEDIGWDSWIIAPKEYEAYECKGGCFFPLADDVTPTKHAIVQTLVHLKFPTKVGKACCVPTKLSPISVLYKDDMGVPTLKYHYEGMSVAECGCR

T3: GDF11 (UniProt O95390 299-407)
T3 sequence (looked up): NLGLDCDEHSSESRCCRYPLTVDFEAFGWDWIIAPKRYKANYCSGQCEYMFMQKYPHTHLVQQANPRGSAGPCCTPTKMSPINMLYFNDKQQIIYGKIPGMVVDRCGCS

T4: BMP10 (UniProt O95393 317-424)
T4 sequence (looked up): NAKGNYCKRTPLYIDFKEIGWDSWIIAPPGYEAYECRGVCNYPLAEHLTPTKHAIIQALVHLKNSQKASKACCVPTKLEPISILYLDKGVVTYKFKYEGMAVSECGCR

T5: activin B (UniProt P09529 293-407)
T5 sequence (looked up): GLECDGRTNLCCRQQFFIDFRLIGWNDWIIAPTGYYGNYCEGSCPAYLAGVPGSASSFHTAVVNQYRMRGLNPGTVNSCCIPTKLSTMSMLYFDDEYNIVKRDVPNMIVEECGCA


Experiments:
Experiment in all cases: cell-based or functional assay
activin A [1] = target: T1, activin A
BMP9 = target: T2, BMP9
GDF11 = target: T3, GDF11
activin A [2] = target: T1, activin A; remark: listed apart in the source
BMP10 = target: T4, BMP10
activin B = target: T5, activin B

Binder	IC50, A204 pGL3(CAGA)12 luciferase reporter (activin A [1]) [ng/ml]	IC50, A204 pGL3(CAGA)12 luciferase reporter (BMP9) [ng/ml]	IC50, A204 pGL3(CAGA)12 luciferase reporter (GDF11) [ng/ml]	IC50, A204 pGL3(CAGA)12 luciferase reporter (activin A [2]) [nM]	IC50, A204 pGL3(CAGA)12 luciferase reporter (BMP10) [nM]	IC50, A204 pGL3(CAGA)12 luciferase reporter (activin B) [pM]
ActRIIB-Fc variant R40A (Fc fusion) GRGEAETRECIYYNANWELEATNQSGLERCEGEQDKRLHCYASWRNSSGTIELVKKGCWLDDFNCYDRQECVATEENPQVYFCCCEGNFCNERFTHLPEAGGPEVTYEPPPTAPTG[human IgG1 Fc and a few adjoining residues not shown]		1210	591			
ActRIIB-Fc variant K74R (Fc fusion) GRGEAETRECIYYNANWELERTNQSGLERCEGEQDKRLHCYASWRNSSGTIELVRKGCWLDDFNCYDRQECVATEENPQVYFCCCEGNFCNERFTHLPEAGGPEVTYEPPPTAPTG[human IgG1 Fc and a few adjoining residues not shown]		165	45			
ActRIIB-Fc variant K55D (Fc fusion) GRGEAETRECIYYNANWELERTNQSGLERCEGEQDDRLHCYASWRNSSGTIELVKKGCWLDDFNCYDRQECVATEENPQVYFCCCEGNFCNERFTHLPEAGGPEVTYEPPPTAPTG[human IgG1 Fc and a few adjoining residues not shown]	396	5500	365			
ActRIIB-Fc variant F82W (Fc fusion) GRGEAETRECIYYNANWELERTNQSGLERCEGEQDKRLHCYASWRNSSGTIELVKKGCWLDDWNCYDRQECVATEENPQVYFCCCEGNFCNERFTHLPEAGGPEVTYEPPPTAPTG[human IgG1 Fc and a few adjoining residues not shown]			276			
ActRIIB-Fc variant L79R (Fc fusion) GRGEAETRECIYYNANWELERTNQSGLERCEGEQDKRLHCYASWRNSSGTIELVKKGCWRDDFNCYDRQECVATEENPQVYFCCCEGNFCNERFTHLPEAGGPEVTYEPPPTAPTG[human IgG1 Fc and a few adjoining residues not shown]			234			
ActRIIB-Fc variant E50P (Fc fusion) GRGEAETRECIYYNANWELERTNQSGLERCPGEQDKRLHCYASWRNSSGTIELVKKGCWLDDFNCYDRQECVATEENPQVYFCCCEGNFCNERFTHLPEAGGPEVTYEPPPTAPTG[human IgG1 Fc and a few adjoining residues not shown]	756	~3000	638			
ActRIIB(F82K)-G1Fc (Fc fusion) GRGEAETRECIYYNANWELERTNQSGLERCEGEQDKRLHCYASWRNSSGTIELVKKGCWLDDKNCYDRQECVATEENPQVYFCCCEGNFCNERFTHLPEAGGPEVTYEPPPTAPTG[human IgG1 Fc and a few adjoining residues not shown]	10	~5000	15			
ActRIIB(K55E)-G1Fc (Fc fusion) GRGEAETRECIYYNANWELERTNQSGLERCEGEQDERLHCYASWRNSSGTIELVKKGCWLDDFNCYDRQECVATEENPQVYFCCCEGNFCNERFTHLPEAGGPEVTYEPPPTAPTG[human IgG1 Fc and a few adjoining residues not shown]	19	290	14			
ActRIIB(F82K-N83R)-G1Fc (Fc fusion) GRGEAETRECIYYNANWELERTNQSGLERCEGEQDKRLHCYASWRNSSGTIELVKKGCWLDDKRCYDRQECVATEENPQVYFCCCEGNFCNERFTHLPEAGGPEVTYEPPPTAPTG[human IgG1 Fc and a few adjoining residues not shown]				1.32	0.53	90
ActRIIB(K55A)-G1Fc (Fc fusion) GRGEAETRECIYYNANWELERTNQSGLERCEGEQDARLHCYASWRNSSGTIELVKKGCWLDDFNCYDRQECVATEENPQVYFCCCEGNFCNERFTHLPEAGGPEVTYEPPPTAPTG[human IgG1 Fc and a few adjoining residues not shown]	15	122	11			

Continued, values first:

IC50, A204 pGL3(CAGA)12 luciferase reporter (activin A [1]) [ng/ml]	IC50, A204 pGL3(CAGA)12 luciferase reporter (BMP9) [ng/ml]	IC50, A204 pGL3(CAGA)12 luciferase reporter (GDF11) [ng/ml]	IC50, A204 pGL3(CAGA)12 luciferase reporter (activin A [2]) [nM]	IC50, A204 pGL3(CAGA)12 luciferase reporter (BMP10) [nM]	IC50, A204 pGL3(CAGA)12 luciferase reporter (activin B) [pM]	Binder
11	277	9				ActRIIB(F82I)-G1Fc (Fc fusion, also called ActRIIB(F82I)-Fc) GRGEAETRECIYYNANWELERTNQSGLERCEGEQDKRLHCYASWRNSSGTIELVKKGCWLDDINCYDRQECVATEENPQVYFCCCEGNFCNERFTHLPEAGGPEVTYEPPPTAPTG[human IgG1 Fc and a few adjoining residues not shown]
206	777	318				ActRIIB-Fc variant K55R (Fc fusion) GRGEAETRECIYYNANWELERTNQSGLERCEGEQDRRLHCYASWRNSSGTIELVKKGCWLDDFNCYDRQECVATEENPQVYFCCCEGNFCNERFTHLPEAGGPEVTYEPPPTAPTG[human IgG1 Fc and a few adjoining residues not shown]
762	~10000	296				ActRIIB-Fc variant E52K (Fc fusion) GRGEAETRECIYYNANWELERTNQSGLERCEGKQDKRLHCYASWRNSSGTIELVKKGCWLDDFNCYDRQECVATEENPQVYFCCCEGNFCNERFTHLPEAGGPEVTYEPPPTAPTG[human IgG1 Fc and a few adjoining residues not shown]
198	359	71				ActRIIB-Fc variant E52A (Fc fusion) GRGEAETRECIYYNANWELERTNQSGLERCEGAQDKRLHCYASWRNSSGTIELVKKGCWLDDFNCYDRQECVATEENPQVYFCCCEGNFCNERFTHLPEAGGPEVTYEPPPTAPTG[human IgG1 Fc and a few adjoining residues not shown]
		544				ActRIIB-Fc variant Y60P (Fc fusion) GRGEAETRECIYYNANWELERTNQSGLERCEGEQDKRLHCPASWRNSSGTIELVKKGCWLDDFNCYDRQECVATEENPQVYFCCCEGNFCNERFTHLPEAGGPEVTYEPPPTAPTG[human IgG1 Fc and a few adjoining residues not shown]
		414				ActRIIB-Fc variant Y60K (Fc fusion) GRGEAETRECIYYNANWELERTNQSGLERCEGEQDKRLHCKASWRNSSGTIELVKKGCWLDDFNCYDRQECVATEENPQVYFCCCEGNFCNERFTHLPEAGGPEVTYEPPPTAPTG[human IgG1 Fc and a few adjoining residues not shown]
132	721	180				ActRIIB-Fc variant E50K (Fc fusion) GRGEAETRECIYYNANWELERTNQSGLERCKGEQDKRLHCYASWRNSSGTIELVKKGCWLDDFNCYDRQECVATEENPQVYFCCCEGNFCNERFTHLPEAGGPEVTYEPPPTAPTG[human IgG1 Fc and a few adjoining residues not shown]
128	409	99				ActRIIB-Fc variant A24N (Fc fusion) GRGENETRECIYYNANWELERTNQSGLERCEGEQDKRLHCYASWRNSSGTIELVKKGCWLDDFNCYDRQECVATEENPQVYFCCCEGNFCNERFTHLPEAGGPEVTYEPPPTAPTG[human IgG1 Fc and a few adjoining residues not shown]
	~40000	389				ActRIIB-Fc variant F82W/N83A (Fc fusion) GRGEAETRECIYYNANWELERTNQSGLERCEGEQDKRLHCYASWRNSSGTIELVKKGCWLDDWACYDRQECVATEENPQVYFCCCEGNFCNERFTHLPEAGGPEVTYEPPPTAPTG[human IgG1 Fc and a few adjoining residues not shown]
		477				ActRIIB-Fc variant L79K (Fc fusion) GRGEAETRECIYYNANWELERTNQSGLERCEGEQDKRLHCYASWRNSSGTIELVKKGCWKDDFNCYDRQECVATEENPQVYFCCCEGNFCNERFTHLPEAGGPEVTYEPPPTAPTG[human IgG1 Fc and a few adjoining residues not shown]
